# Reference: ChEMBL document CHEMBL5308541, “MAIP: An Open-Source Tool to Enrich High-Throughput Screening Output and Identify Novel, Druglike Molecules with Antimalarial Activity” (ACS Med Chem Lett, 2023)
# Out of some 150,000 compounds screened, about 540 (0.36%) showed an effect of 50% or more. The list shows a part of the results.
# Test system: Plasmodium falciparum
# Experiment: Primary screen in NF54 nanoGlo assay, in single point, at 2uM, 72h; a lower Z score goes with more inhibition
# Assay type: functional, Erythrocyte
# Conditions: timepoint 72 hour
Compound,% Inhibition,Z score
Oc1cccc(CN2CCC(NC[C@]3(O)CCCN4CCCC[C@@H]43)CC2)c1,-5%,0.96
CCN1CCN(C(=O)c2ccc(N3CCC(N(C)Cc4nc5cc(C)c(C)cc5[nH]4)CC3)cc2)CC1,2%,-0.44
CN1CCC(N2CCC(NC(=O)N3CCOc4ccccc4C3)CC2)CC1,1%,-0.17
CC(C)(O)CN1CCc2c(cccc2NCc2ccc3occc3c2)C1,4%,-0.62
O=C1CO[C@]2(CCN(C(=O)c3cncc(Cl)c3)C2)CN1,9%,-1.84
c1cc2c(NC[C@@H](c3ccsc3)N3CCOCC3)ncnc2cn1,-9%,1.44
COc1ccc2ncc(Cl)c(NC[C@H]3CC(=O)N(C4CC4)C3)c2c1,-11%,1.65
Cc1nn(C)c(C)c1C(=O)N1CCC(N2CCC(Oc3ncc(C(F)(F)F)cc3Cl)CC2)CC1,2%,-0.35
Cc1cc(N2CCC(NC3CCCC3Cc3ccc(F)cc3)CC2)nc(N)n1 (centres undefined),96%,-14.52
O=C(Cn1nc2ccccc2c1O)NC[C@H](O)CN1CCCCCC1,-8%,1.33
CCN1C[C@@H](n2cnc(-c3ccccc3)c2-c2cnn3cccnc23)CC1=O,2%,-0.28
CN1CCN(CCNC(CC2CCCN2C(=O)OC(C)(C)C)C2CC2)CC1(C)C (centres undefined),3%,-0.57
Cc1nn(C)c(OCC(F)(F)F)c1CNC1CC(C)(C)NC(C)(C)C1,-7%,1.17
COCCN1CCC(CN(C)C(=O)c2ccc(-c3cncc(N)c3)cc2)CC1,2%,-0.4
COc1ccc(-c2ccncc2)cc1CNC[C@H]1CC(=O)N(C2CC2)C1,3%,-0.73
O=C(NCc1ccncc1O[C@H]1CCNC1)c1cc(F)cc2[nH]cnc12,19%,-2.96
COc1ccc2nc(C(=O)Nc3nc(-c4ccc([C@H](C)NC(C)=O)cc4)cs3)ccc2c1,-10%,1.49
COC(=O)N1CCC(NCCNc2ccc(C(F)(F)F)cn2)CC1,0%,0.07
COc1cc(C(=O)N2CCN(C)[C@H](c3nc(C)no3)C2)ncn1,-7%,1.61
COc1nccc(-c2nc3cccc(Cl)c3[nH]2)c1F,-8%,1.69
Fc1ccccc1Nc1nc(-c2ccccc2)c(-c2ccccc2)s1,0%,-0.06
CN1CCC(CN2CCN(C(=O)c3cnoc3-c3ccccc3)CC2)CC1,-4%,0.64
